# Results as given in the antibiotic and cytotoxicity screens of Wong et al. (2023).
# Some of the results follow.
# Tests used:
# HSkMC = human skeletal muscle cells; experiment: cytotoxicity call (relative viability < 0.9); details: 10 µM
# HepG2 = experiment: cytotoxicity call (relative viability < 0.9); details: 10 µM
# S. aureus RN4220 = experiment: growth inhibition call (relative growth <= 0.2); details: 50 µM
Structure (SMILES),cytotoxicity call (HSkMC),cytotoxicity call (HepG2),growth inhibition call (S. aureus RN4220)
O=C(C[C@H]1C[C@@H]2c3cc(NC(=O)NC4CCCC4)ccc3O[C@@H]2[C@@H](CO)O1)NCCN1CCCCC1,inactive,inactive,inactive
CC(C)(C)[S@](=O)N1Cc2cc(C(=O)N3CCc4ccccc4C3)nc(-c3cccc(-c4cncnc4)c3)c2[C@@H]1CCO,inactive,inactive,inactive
COc1cccc(-n2cc([C@@H](C)N)cn2)c1,inactive,inactive,inactive
C[C@@H]1CCCCO[C@@H](CN(C)Cc2ccc3c(c2)OCO3)[C@H](C)CN([C@H](C)CO)C(=O)c2cc(NC(=O)Cc3ccccc3)ccc2O1,inactive,inactive,inactive
C=CCNC(=O)[C@H]1[C@@H]2C(=O)O[C@@H](c3ccccc3)[C@@H](c3ccccc3)N2[C@@H](c2ccc(OCCO)cc2)[C@]12C(=O)Nc1ccc(C#CC3=CCCCC3)cc12,inactive,inactive,inactive
CC(C)NC(=O)Nc1ccc2c(c1)C(=O)N([C@H](C)CO)C[C@H](C)[C@@H](CN(C)CC1CCCCC1)OCCCC[C@@H](C)O2,inactive,inactive,inactive
C[C@@H]1CN([C@H](C)CO)C(=O)c2cc(NS(=O)(=O)c3cn(C)cn3)ccc2O[C@H]1CN(C)C(=O)Nc1ccccc1,inactive,inactive,inactive
C[C@H](CO)N1C[C@H](C)[C@@H](CN(C)S(=O)(=O)c2ccccc2)Oc2ncc(-c3ccncc3)cc2C1=O,inactive,inactive,inactive
Cc1noc(C)c1S(=O)(=O)Nc1ccc2c(c1)C(=O)N([C@@H](C)CO)C[C@H](C)[C@H](CN(C)Cc1ccccc1)OCCCC[C@H](C)O2,inactive,inactive,inactive
COc1cccc(OCc2ccc(Cn3nc(NC(=O)Nc4c(OC)cccc4OC)c4ccccc43)cc2)c1,inactive,inactive,inactive
C[C@H](CO)N1C[C@H](C)[C@@H](CN(C)Cc2ccc(Oc3ccccc3)cc2)Oc2c(NC(=O)C3CCCCC3)cccc2C1=O,active,active,inactive
C[C@H]1CN([C@@H](C)CO)C(=O)c2cccc(NC(=O)C3CCCCC3)c2O[C@H]1CN(C)Cc1ccc(Cl)c(Cl)c1,inactive,inactive,inactive
C[C@@H]1CN([C@H](C)CO)C(=O)c2cccc(NS(=O)(=O)c3cn(C)cn3)c2O[C@@H]1CN(C)Cc1ccccc1,inactive,inactive,inactive
NCC[C@@H]1CC[C@@H](NC(=O)Cc2ccncc2)[C@@H](CO)O1,inactive,inactive,inactive
COc1cccc(C#Cc2ccc([C@H]3[C@@H](CO)N4C(=O)CN(S(=O)(=O)c5ccccc5C)C[C@@H]34)cc2)c1,inactive,inactive,inactive
Cn1cnc(S(=O)(=O)N[C@@H]2CC[C@@H](CC(=O)Nc3ccccc3)O[C@@H]2CO)c1,inactive,inactive,inactive
C[C@@H]1CN([C@@H](C)CO)C(=O)CCCn2nncc2CO[C@H]1CN(C)S(=O)(=O)c1ccc(-c2ccccc2)cc1,inactive,inactive,inactive
C[C@@H]1CN([C@H](C)CO)C(=O)Cc2cc(NC(=O)c3ccncc3)ccc2O[C@@H]1CN(C)S(=O)(=O)c1ccc(Cl)cc1,inactive,inactive,inactive
C[C@@H]1CCCCO[C@@H](CN(C)S(=O)(=O)c2ccccc2)[C@@H](C)CN([C@H](C)CO)C(=O)c2cc(NS(=O)(=O)c3ccc(Cl)cc3)ccc2O1,inactive,inactive,inactive
C[C@H]1CN=C(NS(=O)(=O)c2ccccc2)N1,inactive,inactive,inactive
C[C@@H]1CCCCO[C@@H](CN(C)CC2CCCCC2)[C@@H](C)CN([C@H](C)CO)C(=O)c2cc(NS(=O)(=O)c3ccccc3)ccc2O1,inactive,inactive,inactive
Cc1ccc(S(=O)(=O)Nc2ccc3c(c2)C(=O)N([C@@H](C)CO)C[C@H](C)[C@@H](CN(C)C(=O)Nc2ccc(C(F)(F)F)cc2)O3)cc1,inactive,inactive,inactive
CN(C)C(=O)c1ccc(-c2cccc(-c3nc(C(=O)NC4CCCC4)cc4c3[C@H](CCO)N([S@@](=O)C(C)(C)C)C4)c2)cc1,inactive,inactive,inactive
CS(=O)(=O)Nc1ccc2c(c1)C(=O)NC2=O,inactive,inactive,inactive
C[C@@H]1CCCCO[C@@H](CN(C)S(=O)(=O)c2cccs2)[C@@H](C)CN([C@H](C)CO)C(=O)c2cc(NS(=O)(=O)c3cn(C)cn3)ccc2O1,inactive,inactive,inactive
C[C@H](CO)N1C[C@H](C)[C@H](CN(C)C(=O)CN(C)C)Oc2cc(C#Cc3cccnc3)ccc2S1(=O)=O,inactive,inactive,inactive
Cc1ccc(S(=O)(=O)N(C)C[C@H]2Oc3c(NC(=O)c4ccncc4)cccc3C(=O)N([C@@H](C)CO)C[C@H]2C)cc1,inactive,inactive,inactive

Structure (SMILES),cytotoxicity call (HSkMC),cytotoxicity call (HepG2),growth inhibition call (S. aureus RN4220)
COc1ccc(S(=O)(=O)Nc2ccc3c(c2)C(=O)N([C@@H](C)CO)C[C@H](C)[C@@H](CN(C)Cc2ccc(C(=O)O)cc2)OCCCC[C@H](C)O3)cc1,inactive,inactive,inactive
N#CCN1CCNCC1,inactive,inactive,inactive
CCS(=O)(=O)N1C[C@]2(C1)CN([C@H](CO)c1c2c2ccc(cc2n1C)OC)S(=O)(=O)c1ccccc1,inactive,inactive,inactive
C[C@@H]1CN([C@H](C)CO)C(=O)c2cc(C3=CCCC3)cnc2O[C@@H]1CN(C)C(=O)c1ccc2c(c1)OCO2,inactive,inactive,inactive
C[C@@H]1CCCCO[C@H](CN(C)Cc2ccc3c(c2)OCO3)[C@@H](C)CN([C@H](C)CO)C(=O)c2cc(NC(=O)Nc3ccc(F)cc3)ccc2O1,inactive,active,inactive
CC(C)CNC(=O)[C@@H]1c2ccccc2C(=O)N(Cc2cc(F)cc(C(F)(F)F)c2)[C@H]1c1ccc(CO)cc1,inactive,inactive,inactive
O=C1C=C2CC3(O)COc4cc(O)ccc4C3=C2C=C1O (configuration not stated),inactive,inactive,inactive
COCC(=O)Nc1ccc2c(c1)C(=O)N(C)C[C@@H](OC)[C@H](C)CN(C(=O)c1ccccc1F)[C@@H](C)CO2,inactive,inactive,inactive
COC(=O)C1=CO[C@@H](O[C@@H]2O[C@H](CO)[C@@H](O)[C@H](O)[C@H]2O)[C@H]2[C@@H]1[C@H](O)C[C@]2(C)O,inactive,inactive,inactive
Cc1ccc(S(=O)(=O)Nc2cccc3c2O[C@@H](CN(C)CC2CC2)[C@H](C)CN([C@H](C)CO)C3=O)cc1,inactive,inactive,inactive
C[C@@H]1CN([C@H](C)CO)S(=O)(=O)c2ccc(C3=CCCC3)cc2O[C@H]1CN(C)S(=O)(=O)c1cn(C)cn1,inactive,inactive,inactive
CO[C@H]1CN(C)C(=O)c2cc(NS(=O)(=O)CC(F)(F)F)ccc2OC[C@@H](C)N(Cc2nccs2)C[C@@H]1C,inactive,inactive,inactive
O=C(O)[C@H](O)[C@@H](O)[C@H](O)[C@H](O)CO,inactive,inactive,inactive
O=C1O[C@@H](c2ccccc2)[C@@H](c2ccccc2)N2[C@@H](c3ccc(O)cc3)[C@]3(C(=O)Nc4ccc(C#CC5(O)CCCCCC5)cc43)[C@@H](C(=O)N3CCCCCCC3)[C@H]12,inactive,inactive,inactive
Cc1ccc2cc(-c3c(C)ccc(C(=O)c4c(-c5ccccc5)n(C)n(-c5ccccc5)c4=O)c3N)ccc2n1,inactive,inactive,inactive
C[C@@H]1CN([C@H](C)CO)C(=O)c2cc(NC(=O)Nc3ccc4c(c3)OCO4)ccc2O[C@@H](C)CCCCO[C@@H]1CN(C)S(=O)(=O)c1ccccc1,inactive,inactive,inactive
CN1C(=O)c2cc(NC(=O)C3CCOCC3)ccc2OC[C@H]2O[C@H](CC(=O)NCc3ccccc3F)CC[C@H]21,inactive,inactive,inactive
Cc1noc(C)c1NC(=O)N[C@H]1C=C[C@@H](CC(=O)NCCCN(C)C)O[C@@H]1CO,inactive,inactive,inactive
CC(C)NC(=O)Nc1ccc2c(c1)CC(=O)N([C@@H](C)CO)C[C@H](C)[C@@H](CN(C)S(=O)(=O)c1cccs1)O2,inactive,inactive,inactive
C[C@@H]1CCCCO[C@H](CN(C)Cc2ccc3c(c2)OCO3)[C@@H](C)CN([C@H](C)CO)C(=O)c2cc(NC(=O)CCC(F)(F)F)ccc2O1,inactive,inactive,inactive
C[C@H](CO)N1C[C@H](C)[C@H](CN(C)C)Oc2ccc(NC(=O)Cc3cn(C)c4ccccc34)cc2CC1=O,inactive,inactive,inactive
C[C@@H]1CN([C@@H](C)CO)C(=O)c2cccc(NS(=O)(=O)c3ccc(Cl)cc3)c2O[C@H]1CN(C)C(=O)Nc1cccc2ccccc12,inactive,inactive,inactive
COc1ccc(CN(C)C[C@@H]2OCCCC[C@H](C)Oc3ccc(NC(=O)Nc4c(C)noc4C)cc3C(=O)N([C@H](C)CO)C[C@H]2C)cc1,inactive,inactive,inactive
C[C@@H]1CCCCO[C@H](CN(C)C(=O)CCCN(C)C)[C@H](C)CN([C@@H](C)CO)C(=O)c2cc(N(C)C)ccc2O1,inactive,inactive,inactive
C[C@H](CO)N1C[C@H](C)[C@@H](CN(C)C(=O)C2CCCCC2)Oc2cc(C#CC(C)(C)O)ccc2S1(=O)=O,inactive,inactive,inactive
CC(C)NC(=O)Nc1ccc2c(c1)CC(=O)N([C@H](C)CO)C[C@H](C)[C@@H](CN(C)C(=O)NC1CCCCC1)O2,inactive,inactive,inactive
COc1ccc(CN(C)C[C@@H]2OCCCC[C@@H](C)Oc3ccc(NC(=O)Nc4ccc5c(c4)OCO5)cc3C(=O)N([C@H](C)CO)C[C@@H]2C)cc1,inactive,inactive,inactive
